Laboratory results published in PubChem BioAssay AID1963576 (National Center for Advancing Translational Sciences (NCATS), 2024).
The whole screen tested about 46,000 compounds, of which about 60 (0.1%) were called active. Not shown: some 3% with an inconclusive outcome. The call rests on the fitted dose curve; in most records, active means well fitted inhibition curve with a large enough effect; inconclusive means small, poorly fitted or top-dose-only effect; inactive means no such curve, though single readings can be large or run the other way. The list shows a part of the results.

Assay: Primary qHTS assay for Inhibitors of ovarian cancer metastasis using an organotypic tumor microenvironment (TME) model. Further: nearly all actives have a fitted effect of over 65% in size.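 On activity change, negative = inhibition: plate controls were DMSO wells for no effect and tomatine positive control wells for full effect.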
Conditions: SKOV3ip1-GFP adhesion/invasion on 3D omental model, fluorescence; series mostly up to 45.8 µM; activity change, negative = inhibition: at the top concentration
Outline: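 Primary human omental fibroblast/mesothelial 3D culture pre-formed 48 h. SKOV3ip1-GFP cells added with compounds (0.36-46 umol/L), incubated 2 h RT/16 h 37 C, fixed; GFP cells quantified at 488/509 nm.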

outcome, inactive:
COc1ccc(NC(=O)CC2C(=O)N(c3cccc(OC)c3)C(=O)N2CCc2cccs2)cc1 (stereo not given)
O=C(COc1ccccc1F)Nc1ccc2nc(SCCOc3ccccc3)sc2c1
CC(=O)Nc1ccc(NC(=O)CCc2nc3cccnc3n2Cc2cccs2)cc1
COc1ccc(NC(c2nnc(-c3ccccc3)o2)c2ccccc2F)cc1Cl (stereo not given)
CCOc1ccc(CCNC(=O)C2CCN(C(=O)N3CC(CC)Oc4ccccc43)CC2)cc1 (stereo not given)
CCCCOC(=O)c1c(N)n(-c2ccc(OC)cc2OC)c2nc3ccccc3nc12
O=C(NC1CC(=O)N(c2cccc(F)c2)C1)c1cccs1 (stereo not given)
Cc1ccc(C(C)C)c(OCCSc2nc(-c3ccccc3F)nc3cc(=O)[nH]n23)c1
CCOC(=O)c1c(NC(=O)C(C)Sc2cn(CCNC(=O)c3c(F)cccc3F)c3ccccc23)sc2c1CCC2 (stereo not given)
COc1ccccc1NC(=O)CSc1nnc(N)s1
COc1ccc(OC)c(CCNC(=O)CS(=O)(=O)Cc2nc(-c3cccc(Cl)c3)oc2C)c1
O=C(CSc1nc2cc(C(=O)NC3CCCC3)ccc2c(=O)n1CC1CCCO1)c1cccc(Cl)c1 (stereo not given)
COc1ccc(OC)c(NS(=O)(=O)c2cc3c(cc2Cl)N(C(C)=O)CCO3)c1
Cc1ccc(-c2cc(C(=O)Nc3cc([N+](=O)[O-])ccc3C)no2)cc1F
CCOC(=O)c1c(NC(=O)c2cc(C(C)C)on2)sc(C(C)=O)c1C
COc1ccc(CC(=O)Nc2ccc3nc(Nc4ccc(OC)cc4)cc(C)c3c2)cc1
COc1cc(OC)c(Nc2nc3ccccc3c3nncn23)cc1Cl
COc1ccc(/C=C\c2onc(C)c2S(=O)(=O)N2CCC(C(=O)Nc3ccc(F)cc3F)CC2)cc1
Cc1ccc(-c2nc3nc(C)cc(N4CCN(c5cccc(C)c5C)CC4)n3n2)cc1
CCOC(=O)c1ccccc1NC(=O)C1CCN(c2ncnc3c2nc2n3CCCCC2)CC1
CCOc1ccc(C(=O)c2cn(CC(=O)Nc3ccc(OC)cc3)c3cc4c(cc3c2=O)OCCO4)cc1
CN1CCN(C2(CNC(=O)c3ccc(C(C)(C)C)cc3)CCCCC2)CC1
CC1CN(c2ccc(Cl)cc2)c2nc3c(c(=O)n(CC(=O)O)c(=O)n3C)n2C1 (stereo not given)
Cc1cc2nnc(SCc3ccc(F)cc3)n2c2ccccc12

Activity change, negative = inhibition, inactive:
Cc1ccc(NC(=O)Cn2c(=O)n(Cc3nc(-c4ccccc4)no3)c(=O)c3cc4c(cc32)OCO4)cc1F -4.67%
CCc1ccc(OC(C)C(=O)N2CCC(c3nc4ccccc4o3)CC2)cc1 (stereo not given) -4.69%
Cc1ccc(C(=O)Nc2ccc3c(c2)n(C)c(=O)c(=O)n3C)cc1 2.68%
COc1ccc(CNS(=O)(=O)c2ccc(N3CCCCS3(=O)=O)cc2)cc1 -20.1%
CC1CCN(Cc2c(O)ccc3c(=O)c(Oc4ccccc4Cl)c(C(F)(F)F)oc23)CC1 -5.01%
Cc1ccc(NC(=O)Cn2nc(C(=O)Nc3ccc(C)cc3)ccc2=O)cc1 -2.78%
COc1cc(NC(=O)CSc2nnc(C)n3c2cc2oc(C)cc23)cc(OC)c1 -11.4%
Cc1ccccc1-c1noc(-c2ccc(N3CCCCC3)c([N+](=O)[O-])c2)n1 -1.07%
O=C(NCc1ccc(Cl)cc1)c1cnc2sc(N3CCOCC3)nn2c1=O 14%
Cc1c2cnn(CC(=O)NCc3ccc(F)cc3)c(=O)c2c(C)n1Cc1cccc(Cl)c1 -2.88%
CCOCCCN(Cc1ccco1)S(=O)(=O)c1cc2c(cc1Cl)NC(=O)CO2 -6.37%
O=C(Nc1nnc(N2CCCCCC2)s1)Nc1cc(F)ccc1F -3.44%
CCCOc1ccc(C(=O)Nc2ccc3oc(-c4ccncc4)nc3c2)cc1 3.76%
CCC(Sc1nnc2c(n1)[nH]c1ccccc12)C(=O)Nc1nnc(C(C)C)s1 (stereo not given) -2.54%
COc1cccc(CNC(=O)CCS(=O)(=O)c2ccc3c(c2)oc(=O)n3C)c1 -13.6%
COCCCNC(=O)c1c(NC(=O)Cc2coc3c(C)c(C)ccc23)sc2c1CCCC2 -13.8%
COCCN(Cc1cccs1)S(=O)(=O)c1cc(-c2cc(C)no2)ccc1C -27.4%
Cn1nnc2c(N3CCN(c4cccc(Cl)c4)CC3)ncnc21 -2.53%
CC(C)N(C(=O)Cn1cc(SCC(=O)Nc2ccccc2F)c2ccccc21)C(C)C 3.54%
Cc1cccc(-n2ncc(C(=O)N3CCOCC3)c2C2CCN(C(=O)OC(C)(C)C)CC2)c1 18.9%
CCOc1ccc(C(=O)NCc2ccc3c(c2)CCN3C(=O)c2ccc(Cl)cc2)cc1 -2.46%
Cc1ccc(C(=O)c2cc(O)c(O)c([N+](=O)[O-])c2)cc1 26.1%
Cc1c(CCC(=O)NCCc2ccccc2)c(=O)oc2c(C)c(O)ccc12 7.43%
CCc1ccc(NC(=O)c2ccc(CN3CC(=O)N4CCCCC4C3=O)cc2)cc1 (stereo not given) 0.87%
Cc1c(Cl)cccc1NC(=O)N1CCN(C(=O)c2nsc3ccccc23)CC1 -0.642%
Cc1ccccc1Nc1cc(C(=O)NCCCN2CCN(c3cccc(Cl)c3)CC2)c2ccccc2n1 -16.8%
CCCN(C(=O)c1cc2c(=O)oc3ccccc3c2s1)c1ccc(CC)cc1 3.53%
CC(C)C(=O)Nc1ccc2nc(SCC(=O)N3CCCC3)sc2c1 6.06%
CCc1ccc(OCC(=O)NC(Cc2c[nH]c3ccccc23)C(=O)O)cc1 (stereo not given) 4.14%
COc1cccc(OCc2nc3ccccc3n2CCOc2ccc(C)cc2)c1 6.43%
Cc1ccc(Cn2c(C(=O)O)c(CNCc3ccc(OC(C)C)cc3)c3ccc(C)cc32)cc1 -3.52%
COc1cc(OC)c(NC(=O)C2CCN(S(=O)(=O)c3c(C)noc3/C=C/c3c(C)cc(C)cc3C)CC2)cc1Cl 9.62%
COc1ccc(OC)c(NC(=O)CSc2ccc(-c3cccs3)nn2)c1 0.799%
COc1cccc(CNC(=O)c2cc(C)nc3c2c(C)nn3-c2ccc(C)cc2)c1 21.4%
COc1cccc(-n2c(=O)c3c(C)c(C)sc3n(CC(=O)NCCc3ccc(OC)c(OC)c3)c2=O)c1 5.04%
Cn1c(=O)oc2cc(S(=O)(=O)NC(Cc3ccccc3)C(=O)Nc3ccc(F)cc3)ccc21 (stereo not given) 0.0125%
CCn1c(C(=O)NCc2ccc(F)cc2)cc2oc3ccccc3c21 -4.1%
CC12CN3CC(c4ccccc4)(CN(C1)C3c1ccc(O)cc1)C2=O (stereo not given) -4.24%
COc1ccc2[nH]cc(CCNC(C)=O)c2c1 -2.53%
CCOC(=O)c1ccc(N2C(=O)c3n[nH]c(-c4cccs4)c3C2c2ccc(OCC)cc2)cc1 (stereo not given) -9.85%
COc1ccc(CCNc2oc(/C=C/c3cc(OC)c(OC)c(OC)c3)nc2C#N)cc1OC 3.01%
CCN1C(=O)c2ccccc2S(=O)c2ccc(C(=O)NCc3ccc(OC)cc3)cc21 (stereo not given) -6.69%
Cc1ccc(C)c2sc(NC(=O)c3ccc(S(=O)(=O)N4CCC(C)CC4)cc3)nc12 -8.48%
CCOc1ccc(NC(=O)CC2C(=O)N(c3ccc(F)cc3)C(=O)N2Cc2ccc(OC)c(OC)c2)cc1 (stereo not given) 3.13%
COC(=O)c1c(NC(=O)C(C)Oc2ccc(Cl)c(C)c2)sc(C)c1C (stereo not given) 5.36%
Cc1ccc(Sc2c(C)nn(-c3ccccc3)c2OC(=O)C(C)(C)C)cc1 -2.82%
Cc1c(Cl)ccc2sc(N3CCN(C(=O)C(C)C)CC3)nc12 -1.41%
CCOC(=O)c1c(C)oc2nc(C)nc(Nc3ccc(C)c(Cl)c3)c12 -8.71%
CCc1ccc(CNC(=O)c2cc(=O)[nH]c3ccc(S(=O)(=O)N4CCCCC4)cc23)cc1 -0.502%
O=C(NCCc1ccc(Cl)cc1)c1cnc2sc(N3CCOCC3)nn2c1=O -8.73%
Cc1oc(-c2cccc(Cl)c2)nc1CSc1nncn2c1cc1occc12 6.4%
O=C(NCc1ccccc1Cl)c1ccc2c(c1)NC(=O)C(CS(=O)(=O)Cc1ccc(F)cc1Cl)N2 (stereo not given) 2.51%
CCOc1ccccc1NC(=O)NCc1ccc2c(c1)CCN2C(=O)c1ccccc1 -9.37%
CN(C)c1ccc(CN(Cc2ccco2)C(=O)c2ccc(C(C)(C)C)cc2)cc1 -19.4%
Cc1cccc(C)c1Nc1c(-c2ccccc2F)nc2cccc(C)n12 1.24%
COc1ccc(OCC(=O)Nc2nnc(S(=O)(=O)N3CCc4ccccc43)s2)cc1 2.52%
Cc1cc(C)c(S(=O)(=O)Nc2ccc(-c3ccc(N4CCC(C)CC4)nn3)cc2)cc1C 26.6%
Cc1ccccc1C(=O)Nc1cc2c(cc1N1CCOCC1)n(C)c(=O)n2C 4.14%
CCCCN(CC)CCNC(=O)c1c(C)oc2ncnc(N3CCOCC3)c12 9.94%
COc1ccc2[nH]c(=O)c(CN(C(=O)c3cccc(Cl)c3)c3ccccc3C)cc2c1 -8.16%
Cc1ccc2oc3c(c(=O)c2c1)C(c1ccc(O)cc1)N(Cc1ccc2c(c1)OCO2)C3=O (stereo not given) -4.87%
C#CCn1c(C2CC(=O)N(c3ccc(OC)cc3)C2)nc2ccccc21 (stereo not given) 13.5%
Cc1ccc(CNC(=O)c2sc3nc[nH]c(=O)c3c2C)cc1 -9.1%
COc1ccc2occ(CC(=O)Nc3ccc(S(=O)(=O)Nc4nccc(C)n4)cc3)c2c1 6.82%
COc1cccc(-c2cc(C(=O)Nc3c(C)nn(Cc4ccccc4Cl)c3C)no2)c1 -4.27%
CC(C)CCn1c(=O)c2cccnc2n(CC(=O)Nc2ccc(F)cc2)c1=O -1.39%
COc1ccccc1-c1nc(SCC(=O)c2ccccc2)n[nH]1 -3.1%
COc1ccc(-c2[nH]c(-c3cccc(OC)c3)nc2SCC(=O)Nc2ccc3c(c2)OCO3)cc1 -11.7%
COc1cccc(CNC(=O)Cn2c(=O)ccc3cc(S(=O)(=O)N4CCC(C)CC4)ccc32)c1 -7.05%
COc1cccc(C(=O)NCc2ccc3c(c2)CCN3C(=O)c2ccncc2)c1 26.6%
COc1ccc(-n2c3c(c(=O)[nH]c2=O)C(NC(=O)c2ccccc2Cl)(C(F)(F)F)C(=O)N3)cc1 (stereo not given) 13.8%
